# From the supplement of paper PMC12423691
# Some of the results follow. Binding of human transcription factors and regulators to the viral nucleoprotein by AlphaScreen, crude cell-free proteins, amounts not normalised, one pass. Fold of the Venus control; higher = more signal. No active / inactive call. Single-pass screen; sequences are the whole Swiss-Prot entries looked up by name.
# B1: TBX15, Q96SF7 (protein)
# chain: MSERRRSAVALSSRAHAFSVEALIGSNKKRKLRDWEEKGLDLSMEALSPAGPLGDTEDAAAHGLEPHPDSEQSTGSDSEVLTERTSCSFSTHTDLASGAAGPVPAAMSSMEEIQVELQCADLWKRFHDIGTEMIITKAGRRMFPAMRVKITGLDPHQQYYIAMDIVPVDNKRYRYVYHSSKWMVAGNADSPVPPRVYIHPDSLASGDTWMRQVVSFDKLKLTNNELDDQGHIILHSMHKYQPRVHVIRKDFSSDLSPTKPVPVGDGVKTFNFPETVFTTVTAYQNQQITRLKIDRNPFAKGFRDSGRNRTGLEAIMETYAFWRPPVRTLTFEDFTTMQKQQGGSTGTSPTTSSTGTPSPSASSHLLSPSCSPPTFHLAPNTFNVGCRESQLCNLNLSDYPPCARSNMAALQSYPGLSDSGYNRLQSGTTSATQPSETFMPQRTPSLISGIPTPPSLPGNSKMEAYGGQLGSFPTSQFQYVMQAGNAASSSSSPHMFGGSHMQQSSYNAFSLHNPYNLYGYNFPTSPRLAASPEKLSASQSTLLCSSPSNGAFGERQYLPSGMEHSMHMISPSPNNQQATNTCDGRQYGAVPGSSSQMSVHMV
# B2: LCOR, Q96JN0 (protein)
# chain: MQRMIQQFAAEYTSKNSSTQDPSQPNSTKNQSLPKASPVTTSPTAATTQNPVLSKLLMADQDSPLDLTVRKSQSEPSEQDGVLDLSTKKSPCAGSTSLSHSPGCSSTQGNGRPGRPSQYRPDGLRSGDGVPPRSLQDGTREGFGHSTSLKVPLARSLQISEELLSRNQLSTAASLGPSGLQNHGQHLILSREASWAKPHYEFNLSRMKFRGNGALSNISDLPFLAENSAFPKMALQAKQDGKKDVSHSSPVDLKIPQVRGMDLSWESRTGDQYSYSSLVMGSQTESALSKKLRAILPKQSRKSMLDAGPDSWGSDAEQSTSGQPYPTSDQEGDPGSKQPRKKRGRYRQYNSEILEEAISVVMSGKMSVSKAQSIYGIPHSTLEYKVKERLGTLKNPPKKKMKLMRSEGPDVSVKIELDPQGEAAQSANESKNE
# B3: GCM1, Q9NP62 (protein)
# chain: MEPDDFDSEDKEILSWDINDVKLPQNVKKTDWFQEWPDSYAKHIYSSEDKNAQRHLSSWAMRNTNNHNSRILKKSCLGVVVCGRDCLAEEGRKIYLRPAICDKARQKQQRKRCPNCDGPLKLIPCRGHGGFPVTNFWRHDGRFIFFQSKGEHDHPKPETKLEAEARRAMKKVNTAPSSVSLSLKGSTETRSLPGETQSQGSLPLTWSFQEGVQLPGSYSGHLIANTPQQNSLNDCFSFSKSYGLGGITDLTDQTSTVDPMKLYEKRKLSSSRTYSSGDLLPPSASGVYSDHGDLQAWSKNAALGRNHLADNCYSNYPFPLTSWPCSFSPSQNSSEPFYQQLPLEPPAAKTGCPPLWPNPAGNLYEEKVHVDFNSYVQSPAYHSPQEDPFLFTYASHPHQQYSLPSKSSKWDFEEEMTYLGLDHCNNDMLLNLCPLR
# B4: SOX9, P48436 (protein)
# chain: MNLLDPFMKMTDEQEKGLSGAPSPTMSEDSAGSPCPSGSGSDTENTRPQENTFPKGEPDLKKESEEDKFPVCIREAVSQVLKGYDWTLVPMPVRVNGSSKNKPHVKRPMNAFMVWAQAARRKLADQYPHLHNAELSKTLGKLWRLLNESEKRPFVEEAERLRVQHKKDHPDYKYQPRRRKSVKNGQAEAEEATEQTHISPNAIFKALQADSPHSSSGMSEVHSPGEHSGQSQGPPTPPTTPKTDVQPGKADLKREGRPLPEGGRQPPIDFRDVDIGELSSDVISNIETFDVNEFDQYLPPNGHPGVPATHGQVTYTGSYGISSTAATPASAGHVWMSKQQAPPPPPQQPPQAPPAPQAPPQPQAAPPQQPAAPPQQPQAHTLTTLSSEPGQSQRTHIKTEQLSPSHYSEQQQHSPQQIAYSPFNLPHYSPSYPPITRSQYDYTDHQNSSSYYSHAAGQGTGLYSTFTYMNPAQRPMYTPIADTSGVPSIPQTHSPQHWEQPVYTQLTRP
# B5: FOXD4L4, Q8WXT5 (protein)
# chain: MNLPRAERPRSTPQRSLRDSDGEDGKIDVLGEEEDEDEVEDEEEEARQQFLEQSLQPGLQVARWGGVALPREHIEGGGGPSDPSEFGTKFRAPPRSAAASEDARQPAKPPYSYIALITMAILQNPHKRLTLSGICAFISGRFPYYRRKFPAWQNSIRHNLSLNDCFVKIPREPGHPGKGNYWSLDPASQDMFDNGSFLRRRKRFKRHQLTPGAHLPHPFPLPAAHAALHNPHPGPLLGAPAPPQPVPGAYPNTAPGRRPYALLHPHPLRYLLLSARVYAGAPKKAEGADLATPAPFPCCSPHLVLSLGRRARVWRRHREADASLSALRVLCKGSGERVQGLRRVCPRPRGATATCSSDHQACCIPKPLPLCCKCPPPLLLGQFCSNSSSIRRTAPTAALPPRARCWAGTCRPRRRC
# B6: S100A12, P80511 (protein)
# chain: MTKLEEHLEGIVNIFHQYSVRKGHFDTLSKGELKQLLTKELANTIKNIKDKAVIDEIFQGLDANQDEQVDFQEFISLVAIALKAAHYHTHKE
# B7: ZNF573, Q86YE8 (protein)
# chain: MFPVLEPHQVGLIRSYNSKTMTCFQELVTFRDVAIDFSRQEWEYLDPNQRDLYRDVMLENYRNLVSLGGHSISKPVVVDLLERGKEPWMILREETQFTDLDLQCEIISYIEVPTYETDISSTQLQSIYKREKLYECKKCQKKFSSGYQLILHHRFHVIERPYECKECGKNFRSGYQLTLHQRFHTGEKPYECTECGKNFRSGYQLTVHQRFHTGEKTYECRQCGKAFIYASHIVQHERIHTGGKPYECQECGRAFSQGGHLRIHQRVHTGEKPYKCKECGKTFSRRSNLVEHGQFHTDEKPYICEKCGKAFRRGHQLTVHQRVHTGKKPYECKECGKGYTTASYFLLHQRIHKGGKPYECKECKKTFTLYRNLTRHQNIHTGEKLFECKQCGKTYTTGSKLFQHQKTHTGEKPYECKECGKAFSLYGYLKQHQKIHTGMKHFECKECKKTFTLYRNLTRHQNIHTGKKLFECQECGKAYSTGSNLIQHRKTHTGEKPYKCKECGKTFSLHGYLNQHQKIHTGMKPYECKVCRKTFTFYRNLTLHQSIHTDEKPFECKECGKTFRRSSHLTAHQSIHADKKPYECKECGKAFKMYGYLTQHQKIHTGGKPYECKECGKAFSRASNLVQHERIHTGEKPYVCKQCGKTFRYGSALKAHQRIHRSIKV
# B8: ZSCAN26, Q16670 (protein)
# chain: MATALVSAHSLAPLNLKKEGLRVVREDHYSTWEQGFKLQGNSKGLGQEPLCKQFRQLRYEETTGPREALSRLRELCQQWLQPETHTKEQILELLVLEQFLIILPKELQARVQEHHPESREDVVVVLEDLQLDLGETGQQDPDQPKKQKILVEEMAPLKGVQEQQVRHECEVTKPEKEKGEETRIENGKLIVVTDSCGRVESSGKISEPMEAHNEGSNLERHQAKPKEKIEYKCSEREQRFIQHLDLIEHASTHTGKKLCESDVCQSSSLTGHKKVLSREKGHQCHECGKAFQRSSHLVRHQKIHLGEKPYQCNECGKVFSQNAGLLEHLRIHTGEKPYLCIHCGKNFRRSSHLNRHQRIHSQEEPCECKECGKTFSQALLLTHHQRIHSHSKSHQCNECGKAFSLTSDLIRHHRIHTGEKPFKCNICQKAFRLNSHLAQHVRIHNEEKPYQCSECGEAFRQRSGLFQHQRYHHKDKLA
# B9: TADA2B, Q86TJ2 (protein)
# chain: MAELGKKYCVYCLAEVSPLRFRCTECQDIELCPECFSAGAEIGHHRRYHGYQLVDGGRFTLWGPEAEGGWTSREEQLLLDAIEQFGFGNWEDMAAHVGASRTPQEVMEHYVSMYIHGNLGKACIPDTIPNRVTDHTCPSGGPLSPSLTTPLPPLDISVAEQQQLGYMPLRDDYEIEYDQDAETLISGLSVNYDDDDVEIELKRAHVDMYVRKLKERQRRKNIARDYNLVPAFLGKDKKEKEKALKRKITKEEKELRLKLRPLYQFMSCKEFDDLFENMHKEKMLRAKIRELQRYRRNGITKMEESAEYEAARHKREKRKENKNLAGSKRGKEDGKDSEFAAIENLPGFELLSDREKVLCSSLNLSPARYVTVKTIIIKDHLQKRQGIPSKSRLPSYLDKVLKKRILNFLTESGWISRDAS
# B10: SOHLH1, Q5JUK2 (protein)
# chain: MASRCSEPYPEVSRIPTVRGCNGSLSGALSCCEDSARGSGPPKAPTVAEGPSSCLRRNVISERERRKRMSLSCERLRALLPQFDGRREDMASVLEMSVQFLRLASALGPSQEQHAILASSKEMWHSLQEDVLQLTLSSQIQAGVPDPGTGASSGTRTPDVKAFLESPWSLDPASASPEPVPHILASSRQWDPASCTSLGTDKCEALLGLCQVRGGLPPFSEPSSLVPWPPGRSLPKAVRPPLSWPPFSQQQTLPVMSGEALGWLGQAGPLAMGAAPLGEPAKEDPMLAQEAGSALGSDVDDGTSFLLTAGPSSWPGEWGPGFRAGPPA
# B11: CREBL2, O60519 (protein)
# chain: MDDSKVVGGKVKKPGKRGRKPAKIDLKAKLERSRQSARECRARKKLRYQYLEELVSSRERAICALREELEMYKQWCMAMDQGKIPSEIKALLTGEEQNKSQQNSSRHTKAGKTDANSNSW
# B12: ZNF148, Q9UQR1 (protein)
# chain: MNIDDKLEGLFLKCGGIDEMQSSRTMVVMGGVSGQSTVSGELQDSVLQDRSMPHQEILAADEVLQESEMRQQDMISHDELMVHEETVKNDEEQMETHERLPQGLQYALNVPISVKQEITFTDVSEQLMRDKKQIREPVDLQKKKKRKQRSPAKILTINEDGSLGLKTPKSHVCEHCNAAFRTNYHLQRHVFIHTGEKPFQCSQCDMRFIQKYLLQRHEKIHTGEKPFRCDECGMRFIQKYHMERHKRTHSGEKPYQCEYCLQYFSRTDRVLKHKRMCHENHDKKLNRCAIKGGLLTSEEDSGFSTSPKDNSLPKKKRQKTEKKSSGMDKESALDKSDLKKDKNDYLPLYSSSTKVKDEYMVAEYAVEMPHSSVGGSHLEDASGEIHPPKLVLKKINSKRSLKQPLEQNQTISPLSTYEESKVSKYAFELVDKQALLDSEGNADIDQVDNLQEGPSKPVHSSTNYDDAMQFLKKKRYLQAASNNSREYALNVGTIASQPSVTQAAVASVIDESTTASILESQALNVEIKSNHDKNVIPDEVLQTLLDHYSHKANGQHEISFSVADTEVTSSISINSSEVPEVTPSENVGSSSQASSSDKANMLQEYSKFLQQALDRTSQNDAYLNSPSLNFVTDNQTLPNQPAFSSIDKQVYATMPINSFRSGMNSPLRTTPDKSHFGLIVGDSQHSFPFSGDETNHASATSTQDFLDQVTSQKKAEAQPVHQAYQMSSFEQPFRAPYHGSRAGIATQFSTANGQVNLRGPGTSAEFSEFPLVNVNDNRAGMTSSPDATTGQTFG
# Target: nucleoprotein N of Crimean-Congo hemorrhagic fever virus
# Experiment: AlphaScreen luminescence signal relative to Venus negative control (fold); higher = stronger binding to CCHFV N
# Method: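 AlphaScreen binding of cell-free made, FLAG-GST-tagged human transcription factors and regulators (crude translation products) to biotinylated N protein; signal as fold of the FLAG-GST-Venus control. One pass.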
row,Binder,AlphaScreen luminescence signal
1,B1,1.67
2,B2,2.09
3,B3,9.86
4,B4,1.16
5,B5,1.86
6,B6,0.977
7,B7,4.28
8,B8,2.09
9,B9,1.91
10,B10,2.05
11,B11,1.91
12,B12,2.47
